# In the supplement of paper PMC4166925:
# ± gives the standard deviation of the averaged measurements. Over roughly 33,000 sequences, “E-score (dimensionless, -0.5 to 0.5)” has its median near -0.049; the highest 2% begin near 0.37. The list shows a part of the results.
# System: T1, PmTbr T-box DNA-binding domain (GST fusion)
# T1 sequence: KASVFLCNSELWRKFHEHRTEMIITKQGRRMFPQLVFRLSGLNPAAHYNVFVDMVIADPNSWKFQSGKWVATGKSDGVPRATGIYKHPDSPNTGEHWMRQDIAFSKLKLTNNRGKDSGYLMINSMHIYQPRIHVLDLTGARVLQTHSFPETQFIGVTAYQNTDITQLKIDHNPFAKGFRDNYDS
# Assay: PBM E-score of 8-mer (E-score (dimensionless, -0.5 to 0.5)); Tbr is Tbrain of the sea star Patiria miniata (Pm) or the sea urchin Strongylocentrotus purpuratus (Sp); higher = stronger binding preference; most listed sequences are background and not binding sites
# Settings: the construct has about 5 more residues each side
# Protocol: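 Universal protein-binding microarray (Agilent AMADID 016060, 60-bp probes with a 35-bp variable region) incubated with 200 nM GST-fused Patiria miniata Tbr T-box DNA-binding domain (residues 272-466) in PBS pH 7.5. Scored for every ungapped 8-mer (given with its reverse complement) by the Universal PBM Analysis Suite as E-score (modified Wilcoxon-Mann-Whitney enrichment, range -0.5 to 0.5; >0.45 counts as bound) and Z-score of median probe intensity. Two replicate arrays (datasets 1 and 2).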
row,Sequence,PBM E-score of 8-mer
1,AACGCGTT,0.193 ± 0.053
2,GTTCCCCA,-0.00769 ± 0.079
3,GATGTGAA,0.237 ± 0.039
4,AAACTTCC,-0.173 ± 0.03
5,GATATACC,-0.114 ± 0.031
6,AGGAGGGC,-0.158 ± 0.029
7,CTGGGAGC,-0.0864 ± 0.038
8,CCATTCCA,-0.207 ± 0.028
9,CCATACCC,-0.214 ± 0.065
10,CGGAGACA,-0.0405 ± 0.06
11,CTGTGGGC,-0.112 ± 0.032
12,GGCACCGA,-0.0859 ± 0.03
13,AAAACATC,-0.0672 ± 0.081
14,CAACAGAG,-0.237 ± 0.031
15,AACGCGTC,0.226 ± 0.019
16,GCGAAATA,0.265 ± 0.059
17,GAAGCAAC,0.0778 ± 0.07
18,CGCGGTGA,0.138 ± 0.0032
19,ACCCTTAT,0.00575 ± 0.04
20,CCCCCGGA,-0.222 ± 0.011
21,AATCGCGC,0.311 ± 0.024
22,AAAATTCG,-0.117 ± 0.023
23,AGCTCACC,-0.00751 ± 0.022
24,AGTCCGAG,-0.0576 ± 0.054
25,ACAACCAT,0.0298 ± 0.04

row,Sequence,PBM E-score of 8-mer
1,AGCACTGG,0.0172 ± 0.081
2,TACTACTA,-0.287 ± 0.022
3,CCACTGAG,-0.101 ± 0.02
4,GATCCAAA,-0.0214 ± 0.12
5,ACCGCATC,-0.0361 ± 0.016
6,CGCGATTC,0.199 ± 0.024
7,AGATCACC,-0.045 ± 0.0096
8,TACCGGGA,-0.182 ± 0.063
9,AGTACAGA,0.00177 ± 0.049
10,AACATTAA,-0.16 ± 0.045
11,ACACTCGT,0.262 ± 0.034
12,CTCATCTA,-0.306 ± 0.035
13,CGAATCAG,-0.0425 ± 0.0058
14,ATACCTAG,-0.21 ± 0.021
15,AAGAGGAG,0.0185 ± 0.061
16,GAGTTATC,-0.00609 ± 0.018
17,CACCTTTA,0.404 ± 0.013
18,AGTGTGTA,0.172 ± 0.073
19,CATCCCAC,0.0297 ± 0.081
20,GATTCAAA,-0.129 ± 0.046
21,CGGCGCCA,0.199 ± 0.025
22,ACGCCCCG,0.173 ± 0.1
23,CCTGACAC,0.435 ± 0.0077
24,CAGAGCCG,-0.0931 ± 0.019
25,ACTAATGG,-0.0207 ± 0.047

row,Sequence,PBM E-score of 8-mer
1,GATAGTGC,0.0563 ± 0.046
2,AATGTCCA,-0.128 ± 0.028
3,CAAATTCA,0.27 ± 0.062
4,ACACCACT,0.254 ± 0.012
5,CCACCCGC,0.0903 ± 0.013
6,AACAAGCT,-0.168 ± 0.035
7,GTTTGGGA,-0.0818 ± 0.083
8,GTAATTGA,0.00724 ± 0.073
9,ATGGCAAT,0.0272 ± 0.044
10,CTAGCTAC,0.0604 ± 0.0093
11,GACCGGGA,-0.215 ± 0.053
12,GATTTACC,-0.0594 ± 0.011
13,CTCAGGAG,-0.0963 ± 0.019
14,ACGGCTGC,-0.00453 ± 0.0036
15,CCATCGAA,-0.233 ± 0.058
16,CACCAGTG,0.184 ± 0.025
17,CAGACTAG,-0.187 ± 0.057
18,CGCTGGAC,0.0209 ± 0.021
19,AGTTTCAC,0.244 ± 0.029
20,CAGTTCCC,0.136 ± 0.025
21,ATAATCGA,-0.0123 ± 0.056
22,CAGTTGGG,-0.077 ± 0.084
23,AGAGTGGG,-0.217 ± 0.065
24,ACTTCCGC,0.0444 ± 0.012
25,ACCGTCGC,0.136 ± 0.047

row,Sequence,PBM E-score of 8-mer
1,ACGCATAC,-0.0469 ± 0.017
2,ACATGACT,-0.132 ± 0.036
3,CGCAGTCA,-0.0066 ± 0.0064
4,ACCTGTGG,0.251 ± 0.0093
5,CTATTGCA,-0.0832 ± 0.0029
6,AGAACCCT,-0.229 ± 0.014
7,CAAATAGA,-0.176 ± 0.041
8,CTCCTAGA,-0.252 ± 0.036
9,GTACAAGA,-0.298 ± 0.015
10,AGCTGTTA,0.298 ± 0.06
11,AAGCTGTA,-0.0497 ± 0.05
12,ATTGAGCA,-0.338 ± 0.029
13,ACCCTCGA,0.00773 ± 0.041
14,AAAATGAC,0.0503 ± 0.053
15,ACATTAAT,-0.202 ± 0.093
16,CTTCAATC,0.0436 ± 0.043
17,CGGAGGGC,-0.0305 ± 0.062
18,GATTGTCA,0.298 ± 0.0064
19,ATAACCCA,-0.111 ± 0.091
20,AACCTAGC,0.088 ± 0.041
21,CCGTTGGA,-0.0575 ± 0.014
22,AGAGAGAG,0.0664 ± 0.0028
23,CAATTCCC,-0.188 ± 0.036
24,CATTGCAC,0.0799 ± 0.057
25,TGCGTCAA,0.0593 ± 0.038

row,Sequence,PBM E-score of 8-mer
1,TCCGACGA,0.035 ± 0.094
2,AGCTTTCC,0.00209 ± 0.0034
3,AGAGCCGA,-0.00126 ± 0.022
4,ATCCGAAC,-0.238 ± 0.035
5,AGGTGAGA,0.486 ± 0.0024
6,GGCTATTA,-0.0688 ± 0.068
7,CTAGTACA,0.161 ± 0.061
8,CTCTGTGA,0.0449 ± 0.011
9,CGTACCAA,-0.0579 ± 0.0058
10,ACGTGATG,0.137 ± 0.028
11,ACCACGAA,-0.0538 ± 0.031
12,GTGGACGA,-0.178 ± 0.0023
13,AAACAGCG,0.0319 ± 0.027
14,ATGGCAGC,0.161 ± 0.028
15,AGGAAAAC,-0.112 ± 0.11
16,CTCACTGC,0.0572 ± 0.031
17,TTTAAAAA,-0.305 ± 0.035
18,GACTATTA,-0.212 ± 0.038
19,AGGGAATC,-0.209 ± 0.018
20,ATAACGAT,-0.0119 ± 0.062
21,CATGTAGG,-0.0204 ± 0.034
22,ATGGATAA,-0.205 ± 0.1
23,AGCCGTCG,-0.0661 ± 0.062
24,AGGGAAGA,-0.29 ± 0.023
25,ACTGCGCG,-0.189 ± 0.011

row,Sequence,PBM E-score of 8-mer
1,AAATACTG,-0.245 ± 0.042
2,CACGGAGG,0.077 ± 0.042
3,CAAGTATA,-0.00921 ± 0.041
4,CATACGGG,-0.213 ± 0.073
5,AGTAATGC,-0.147 ± 0.047
6,AACCGAGA,0.00939 ± 0.047
7,ATTCGTAG,-0.167 ± 0.023
8,CACGCGGG,0.147 ± 0.069
9,CGAGGCTC,-0.199 ± 0.09
10,CTAGCGGA,-0.0128 ± 0.05
11,GTAAACCA,0.0429 ± 0.038
12,CTCCCCAC,0.00426 ± 0.045
13,TCGACAAA,0.265 ± 0.056
14,GCTAGCCC,-0.089 ± 0.091
15,ATTTTCAG,-0.197 ± 0.067
16,GGTAAGAA,-0.0571 ± 0.028
17,ATCCTCTA,-0.268 ± 0.035
18,ATGGCTAG,-0.125 ± 0.048
19,AACGTCGG,-0.094 ± 0.11
20,ATAGCTTA,-0.178 ± 0.047
21,CATGATGC,-0.0752 ± 0.034
22,AGGAGACC,-0.201 ± 0.0021
23,CGTGTGCC,0.0527 ± 0.013
24,GCAGCCCC,-0.153 ± 0.11
25,ATGGCGCG,0.174 ± 0.0047

row,Sequence,PBM E-score of 8-mer
1,CCGTGCGC,-0.0174 ± 0.045
2,GGATATTA,-0.324 ± 0.004
3,ACCTTACG,0.0769 ± 0.052
4,AGATGCAT,-0.0558 ± 0.0014
5,CAACTCAG,0.0305 ± 0.0082
6,CACCCAAA,0.0441 ± 0.04
7,ACCAATAA,-0.11 ± 0.051
8,CTGCGTAA,-0.156 ± 0.097
9,CTTTTGCA,0.0816 ± 0.017
10,CCATAGGA,-0.0411 ± 0.059
11,TCCAGGAA,-0.132 ± 0.0051
12,AAATTCAG,-0.041 ± 0.0023
13,ATCCAGAG,-0.197 ± 0.0054
14,GTGCAAAA,0.292 ± 0.04
15,AGTCAGCG,-0.0505 ± 0.06
16,GAACCACC,-0.0223 ± 0.019
17,CTTGACGC,0.27 ± 0.0032
18,TCCCCTAA,-0.114 ± 0.027
19,TCGCAAGA,0.16 ± 0.052
20,ACTGCTGC,-0.0992 ± 0.02
21,GTCGGAGA,-0.0752 ± 0.028
22,ACTTGCGG,-0.0023 ± 0.035
